About 200 (0.47%) of roughly 43,000 compounds were called active. Roughly 12% stayed inconclusive and do not appear here. Calls come from the whole dose curve; as a rule, active = well fitted cell-killing curve with a large enough effect; inconclusive = small, poorly fitted or top-dose-only effect, or effect the other way; inactive = flat fitted curve, though single readings scatter. This is one part of the list.
Assay: Cell viability qHTS assay in S16 Pmp22-F2sN cells; note: nearly all actives have a fitted effect of over 65% in size
Conditions: S16 Pmp22-F2sN Schwann cells viability, CellTiter-Glo, 24 h; series mostly up to 57.5 µM; activity change, negative = cytotoxicity: at the top concentration
Outline: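 Viability was measured by CellTiter-Glo luminescence (15 min, room temperature). This followed 24 h at 37 °C of compound exposure (23 nL pin transfer) in S16 Pmp22-F2sN Schwann cells, 500-1,000 per well.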
% is set by controls: 0 for no effect and ±100 for the full control effect.

Compound	activity change, negative = cytotoxicity
Cc1cccc(C(=O)Nc2cccc(OCc3cc(=O)n4c(C)csc4n3)c2)c1	inactive: -1.17%
COc1ccc(OCC(=O)NCCS(=O)(=O)N2CCN(c3cccc(Cl)c3)CC2)cc1	inactive: -6.79%
CCn1cc(C(=O)N(C)Cc2ccccc2)c(=O)c2cc(S(=O)(=O)N3CCCCCC3)ccc21	inactive: 2.21%
COc1ccc(-c2noc(CCC(=O)NCc3ccc(OC)cc3OC)n2)cc1	inactive: -22.6%
COc1ccc(Cl)cc1N(C)C(=O)C(=O)Nc1ccc2nc3n(c(=O)c2c1)CCCCC3	inactive: 3.96%
Cc1ccc(CN(C(=O)COc2ccc(Br)cc2)c2ccccn2)o1	inactive: 1.2%
Cc1ccc(N2CCN(C(=O)c3noc4c3COc3ccc(C)cc3-4)CC2)c(C)c1	inactive: 3.97%
COc1ccc(NC(=O)CSc2nc(-c3ccccc3)nc3c2Cc2c(CO)cnc(C)c2O3)cc1Cl	inactive: 2.09%
Cc1ccc(C)c(N2CCN(C(=O)C(C)n3c(C)c4cnn(-c5ccccc5)c(=O)c4c3C)CC2)c1 (stereo not given)	inactive: -10.4%
Cc1ccc2oc(=O)n(CCNC(=O)Nc3ccc(C)c(F)c3)c2c1	inactive: 0.956%
COc1ccccc1C1C=C(c2ccc(Cl)cc2)Nc2nc(-c3ccc(Cl)cc3)nn21 (stereo not given)	inactive: -15.6%
O=C(CSCc1cnn(-c2ccccc2)c1-n1cccc1)Nc1ccc(F)cc1F	inactive: 5.19%
Cc1ccc(CNC(=O)c2c(-c3cccc(Br)c3)noc2C)o1	inactive: -5.36%
CC(Nc1ccc(-c2nc(-c3ccccn3)no2)cc1[N+](=O)[O-])c1ccccc1 (stereo not given)	inactive: 4.3%
COC(=O)c1ccc(OCC2c3cc(OC)c(OC)cc3CCN2C(=O)c2ccccc2F)cc1 (stereo not given)	inactive: 0.113%
Cc1ccc(C)c(Cn2nc(C)n3c(cc4cc(C)ccc43)c2=O)c1	inactive: 2.54%
N#Cc1cccc(NC(=O)c2ccc3c(c2)N(Cc2cccc(Cl)c2)C(=O)c2ccccc2S3(=O)=O)c1	inactive: -0.346%
O=C(Nc1nnc(S(=O)(=O)N2CCOCC2)s1)c1ccc(F)cc1	inactive: 8.76%
O=C(c1ccc(F)cc1F)N1CCC(c2noc(-c3ccc(S(=O)(=O)N4CCCC4)cc3)n2)CC1	inactive: 8.56%
CCOc1ccc(OCC)c(NC(=O)C2CCN(c3cnccn3)CC2)c1	inactive: 2.34%

Compound	activity change, negative = cytotoxicity
Cn1c(=O)oc2cc(S(=O)(=O)Nc3ccc(O)cc3)ccc21	inactive: -3.15%
COc1ccc(C2NC(=O)N(C)C3=C2C(=O)N(c2ccc(C)cc2)C3)cc1 (stereo not given)	inactive: 6%
Cc1ccccc1-c1noc(-c2ccccc2OCC(=O)Nc2ccccc2[N+](=O)[O-])n1	inactive: 2.03%
CCc1ccc(S(=O)(=O)c2nnn3c2nc(NCc2ccccc2OC)c2cc(Cl)ccc23)cc1	inactive: -0.892%
CCc1ccc(NC(=O)CN(Cc2ccccc2)S(=O)(=O)c2ccc3nc(C)sc3c2)cc1	inactive: -9.39%
O=C(CCn1cnc2onc(-c3ccc(F)cc3)c2c1=O)N1CCN(c2cccc(Cl)c2)CC1	inactive: -9.88%
Cc1ccc(NC(=O)Cn2c(-c3nonc3N)nc3ccccc32)cc1Cl	inactive: -1.78%
CCOc1ccc(CNC(=O)C2Cc3cc(S(=O)(=O)N4CCCCCC4)ccc3N2C(C)=O)cc1 (stereo not given)	inactive: 11.4%
CCOc1ccc(CCNC(=O)c2ccc(C)c(-n3c(C)nc4cccnc43)c2)cc1OCC	inactive: 8.77%
Cc1ccc(CNC(=O)c2cnn3c(C)c(Cc4c(F)cccc4Cl)c(C)nc23)cc1	inactive: 7.57%
Cc1ccc2oc3c(c(=O)c2c1)C(c1cccc(O)c1)N(CCCN1CCOCC1)C3=O (stereo not given)	inactive: -0.216%
COc1ccc(N(Cc2cccs2)C(=O)COc2ccc([N+](=O)[O-])cc2)cc1	inactive: -9.28%
Cc1cc(Br)ccc1NC(=O)CN1C(=O)c2cccnc2Sc2ccccc21	inactive: 0.611%
CCOc1ccc(C(=O)Nc2cc(-c3ccccc3)no2)cc1	inactive: 2.02%
CCOc1ccccc1NC(=O)c1cc2ccc3cccnc3c2[nH]1	inactive: 5.76%
CCN(Cc1ccccc1)C(=O)c1cc2ccc3cccnc3c2[nH]1	inactive: -2.08%
CCOc1ccc(N(CC(=O)Nc2ccc3c(c2)OCO3)S(=O)(=O)c2ccccc2)cc1	inactive: 8.21%
CC(C)Sc1ncc(Cl)c(C(=O)Nc2c(C(=O)Nc3ccccc3)oc3ccccc23)n1	inactive: -1.18%
O=C1c2oc3ccccc3c(=O)c2C(c2cccc(O)c2)N1Cc1ccc(F)cc1 (stereo not given)	inactive: -2.77%
O=C(c1cc(-c2ccc(Cl)cc2)on1)N(Cc1ccc(F)cc1)Cc1ccco1	inactive: -2.97%

Compound	activity change, negative = cytotoxicity
Cc1nn(C)c2c1c(-c1ccccc1)cc(=O)n2Cc1c(F)cccc1Cl	inactive: 8.11%
CCc1cccc(NC(=O)c2sc3nc[nH]c(=O)c3c2C)c1	inactive: -18.6%
CCc1ccc(NS(=O)(=O)c2ccc3[nH]cc(C(=O)N4CCCCCC4)c(=O)c3c2)cc1	inactive: 4.71%
O=C1CN(C(=O)c2ccc(S(=O)(=O)N3CCCC3)cc2)C(c2ccc(F)cc2)c2cc(F)ccc2N1 (stereo not given)	inactive: -18.2%
CCN(c1ccccc1)S(=O)(=O)c1nnc(NC(=O)C(C)Oc2ccccc2)s1 (stereo not given)	inactive: -27.4%
CCOC(=O)Cc1ccc(NC(=O)N2CCC(CN3CCC(C)CC3)CC2)cc1	inactive: 2.53%
COc1ccc(N(C(=O)c2ccc(C)cc2)S(=O)(=O)c2ccc(Cl)cc2)cc1	inactive: -18.9%
CCc1ccc(NC(=O)CN(c2ccc(C)cc2)S(=O)(=O)c2c(C)nn(C)c2C)cc1	inactive: 0.813%
COCCCNC(=O)N1CCN(c2nnc(C)c3c(C)n(-c4ccc(Cl)cc4)nc23)CC1	inactive: 13.2%
COc1ccc(CCNC(=O)CCc2c(C)nc3c(-c4ccc(F)cc4)c(C)nn3c2C)cc1OC	inactive: 3.57%
Cc1oc2ncn(C)c(=O)c2c1C(=O)N1CCN(c2ccc(Cl)cc2)CC1	inactive: -21.5%
COc1ccc(-c2c(C)nn3c(C(F)(F)F)cc(C)nc23)cc1OC	inactive: 2.17%
COc1cccc(CNCCCSc2nnnn2C)c1	inactive: 4.32%
Cc1ccccc1CN1C(=O)c2ccccc2S(=O)c2ccc(C(=O)NCc3ccccc3)cc21 (stereo not given)	inactive: -10.9%
CCOc1cccc(CC(=O)N2CCc3c([nH]c4ccccc34)C2c2ccc(OC)cc2)c1OCC (stereo not given)	inactive: -7.21%
COc1ccc(Cn2c(C(=O)O)c(CNCCc3cccs3)c3ccc(OC)cc32)cc1	inactive: 0.5%
CCCc1nn2c(=O)cc(COC(=O)c3ccccc3NC(=O)C3CCCCC3)nc2s1	inactive: 1.81%
Cc1ccc(NC(=O)C2CCN(S(=O)(=O)c3cccs3)CC2)cc1	inactive: -1.91%
COC(=O)c1c(C)sc(-c2c(-c3ccc(F)cc3)[nH]c3[nH]c(=O)[nH]c(=O)c23)c1O	inactive: 13.4%
COc1ccc(C(=O)NCC(c2cccnc2)N2CCN(c3ccccc3F)CC2)cc1OC (stereo not given)	inactive: -4.39%

From PubChem BioAssay AID1508642 (National Center for Advancing Translational Sciences (NCATS), 2021)
